{"source": "PubChem BioAssay (NCATS)", "note": "Inconclusive means that the source gave no clear call. Such entries were picked first, then a sample of the others. A potency beside an inconclusive call is a rough fit, not a confirmed value. Calls of active or inactive are those of the source. Calls come from the whole dose curve; as a rule, active = well fitted cell-killing curve with a large enough effect; inconclusive = small, poorly fitted or top-dose-only effect, or effect the other way; inactive = flat fitted curve, though single readings scatter. % is set by controls: 0 for no effect and ±100 for the full control effect; potency is the fitted concentration of half-maximal effect; tags give direction and shape of the fitted curve.", "data": [{"test_system": "Hek293T", "assay": "Primary qHTS to identify gynecologic anti-cancer compounds using libraries of approved drugs and bioactive compounds (AID 1345084); note: nearly all actives have a fitted effect of over 55% in size", "conditions": "Gynecologic cancer cell panel viability, ATPlite luminescence, 48 h, control line for the selectivity index; activity change, negative = cytotoxicity: at 57.5 µM (top of the series) unless noted", "in_short": "(§1)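 Cell viability after 48 h drug treatment, ATPlite luminescence readout; five doses.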", "values": [{"smiles": "COc1cccc(-c2cc(F)ccc2C2Cc3nc(N)nc(C)c3C(=O)N2)n1", "note": "(stereo not given)", "Potency": "active: 0.282 µM"}, {"smiles": "CN1CCN(c2ccc(OC(F)(F)F)c(Nc3ncc4c(n3)-c3c(c(C(N)=O)nn3CCO)CC4)c2)CC1", "Potency": "inconclusive: 0.316 µM [cytotoxic, full curve, poor fit]"}, {"smiles": "CCNC(=O)c1noc(-c2cc(Cl)c(O)cc2O)c1-c1ccc(OC)cc1", "Potency": "active: 0.355 µM"}, {"smiles": "O=C(Nc1ccc(Cl)cc1F)c1ccccc1O", "Potency": "active: 17.8 µM"}, {"smiles": "CN1CCN(Cc2ccc(NC(=O)Cc3ccc(Oc4cc(NC(=O)C5CC5)ncn4)cc3)cc2C(F)(F)F)CC1", "Potency": "inconclusive: 5.62 µM [cytotoxic, full curve]"}, {"smiles": "CCN(CC)CCN(Cc1ccc(-c2ccc(C(F)(F)F)cc2)cc1)C(=O)Cn1c(SCc2ccc(F)cc2)nc(=O)c2c1CCC2", "Potency": "inconclusive: 39.8 µM [cytotoxic, single point]"}, {"smiles": "C[C@H](NC(=O)C(C)(C)Oc1ccc(C(F)(F)F)cn1)[C@@H](Cc1ccc(Cl)cc1)c1cccc(C#N)c1", "Potency": "inconclusive: 28.2 µM [cytotoxic, single point]"}, {"smiles": "COc1cc([C@H]2O[C@H](c3cc(OC)c4c(c3)OCO4)[C@H](C)[C@H]2C)cc(OC)c1OC", "Potency": "inconclusive: 1.12 µM [cytotoxic, full curve]"}, {"smiles": "C#Cc1cccc(Nc2nc3cc(C(=O)O)ccc3c3cncnc23)c1", "Potency": "inconclusive: 25.1 µM [cytotoxic, single point]"}, {"smiles": "CC(=O)Nc1ccc(NC(=S)NC(=O)c2ccc(C(C)(C)C)cc2)cc1", "Potency": "inconclusive: 1.12 µM [cytotoxic, full curve, poor fit]"}, {"smiles": "C=C(C(=O)O)C1CC2=C(C)C(=O)CC2C(C)CC1O", "note": "(stereo not given)", "Potency": "inconclusive: 39.8 µM [cytotoxic, single point]"}, {"smiles": "COc1cc(C[C@H]2C(=O)OC[C@@H]2Cc2ccc(OC)c(OC)c2)ccc1O", "Potency": "inconclusive: 5.01 µM [cytotoxic, partial curve]"}, {"smiles": "C=C1C(=O)OC2C(OC(=O)C=C(C)C)C(C)=C3C(=O)C=C(C)C3C(O)C12", "note": "(stereo not given)", "Potency": "inconclusive: 22.4 µM [cytotoxic, single point]"}, {"smiles": "CC1(C)C2CC(OC3OC(COC4OCC(O)(CO)C4O)C(O)C(O)C3O)C1(C)CC2O", "note": "(stereo not given)", "Potency": "inconclusive: 3.98 µM [cytotoxic, single point]"}, {"smiles": "C=CC(=O)N1CCC(Oc2cc3c(Nc4ccc(Cl)c(Cl)c4F)ncnc3cc2OC)CC1", "Potency": "inconclusive: 31.6 µM [cytotoxic, single point]"}, {"smiles": "NC(=O)c1ccccc1Nc1ccnc(Nc2cccc(O)c2)n1", "Potency": "inconclusive: 39.8 µM [cytotoxic, single point]"}, {"smiles": "O=C(Nc1nc2cc(C(F)(F)F)cc(NC3CC3)n2n1)c1cccnc1", "Potency": "inconclusive: 22.4 µM [cytotoxic, single point]"}, {"smiles": "CCCCCCCCC(=O)N[C@H](CN1CCCC1)[C@H](O)c1ccc2c(c1)OCCO2", "Potency": "inconclusive: 31.6 µM [cytotoxic, single point]"}, {"smiles": "CCOC(=O)c1cccc(CNc2ccc(N(C)C(=O)Nc3ccccc3)cc2)c1", "Potency": "inconclusive: 7.94 µM [cytotoxic, partial curve]"}, {"smiles": "CC(C)(C)Nc1nc(Nc2ccc(C(N)=O)cc2)cc(N)c1C#N", "Potency": "inconclusive: 14.1 µM [cytotoxic, partial curve]"}, {"smiles": "CC(=O)N1CCN(CCOc2ccc(C3CCN(C4=Nn5c(nnc5C(F)(F)F)CC4)CC3)cc2)CC1", "Potency": "inconclusive: 14.1 µM [cytotoxic, partial curve, poor fit]"}, {"smiles": "C#CCN(Cc1cc2c(=O)[nH]c(C)nc2cc1Br)c1ccc(C(=O)NCc2cccnc2)cc1", "Potency": "inconclusive: 0.0001 µM"}]}, {"test_system": "JEG-3", "assay": "Primary qHTS to identify gynecologic anti-cancer compounds using libraries of approved drugs and bioactive compounds (AID 1345084)", "conditions": "Gynecologic cancer cell panel viability, ATPlite luminescence, 48 h; series mostly up to 57.5 µM; activity change, negative = cytotoxicity: at the top concentration", "in_short": "as §1", "values": [{"smiles": "COc1cccc(-c2cc(F)ccc2C2Cc3nc(N)nc(C)c3C(=O)N2)n1", "note": "(stereo not given)", "Potency": "inconclusive: 0.355 µM [cytotoxic, full curve, poor fit]"}, {"smiles": "CN1CCN(c2ccc(OC(F)(F)F)c(Nc3ncc4c(n3)-c3c(c(C(N)=O)nn3CCO)CC4)c2)CC1", "Potency": "inconclusive: 0.112 µM [cytotoxic, full curve, poor fit]"}, {"smiles": "CCNC(=O)c1noc(-c2cc(Cl)c(O)cc2O)c1-c1ccc(OC)cc1", "Potency": "inconclusive: 2 µM [cytotoxic, full curve]"}, {"smiles": "C[C@@H](N[C@H]1CCCC[C@@H]1NC(=O)c1ccc(Cl)cc1)c1cccc2ccccc12", "Potency": "inconclusive: 15.8 µM [cytotoxic, partial curve, poor fit]"}, {"smiles": "CN1CCN(Cc2ccc(NC(=O)Cc3ccc(Oc4cc(NC(=O)C5CC5)ncn4)cc3)cc2C(F)(F)F)CC1", "Potency": "inconclusive: 20 µM [cytotoxic, single point]"}, {"smiles": "CCN(CC)CCN(Cc1ccc(-c2ccc(C(F)(F)F)cc2)cc1)C(=O)Cn1c(SCc2ccc(F)cc2)nc(=O)c2c1CCC2", "Potency": "inconclusive: 39.8 µM [cytotoxic, single point]"}, {"smiles": "COc1cc([C@H]2O[C@H](c3cc(OC)c4c(c3)OCO4)[C@H](C)[C@H]2C)cc(OC)c1OC", "activity change, negative = cytotoxicity": "inactive: 8.82% [at 25.3 µM]"}, {"smiles": "C=C(C(=O)O)C1CC2=C(C)C(=O)CC2C(C)CC1O", "note": "(stereo not given)", "Potency": "inconclusive: 25.1 µM [cytotoxic, single point]"}, {"smiles": "COc1cc(C[C@H]2C(=O)OC[C@@H]2Cc2ccc(OC)c(OC)c2)ccc1O", "activity change, negative = cytotoxicity": "inactive: 11.3% [at 38.5 µM]"}, {"smiles": "C=C1C(=O)OC2C(OC(=O)C=C(C)C)C(C)=C3C(=O)C=C(C)C3C(O)C12", "note": "(stereo not given)", "Potency": "inconclusive: 28.2 µM [cytotoxic, single point]"}, {"smiles": "CC1(C)C2CC(OC3OC(COC4OCC(O)(CO)C4O)C(O)C(O)C3O)C1(C)CC2O", "note": "(stereo not given)", "Potency": "inconclusive: 2 µM [rising, single point]"}, {"smiles": "CCN1CCN(Cc2ccc(NC(=O)c3ccc(C)c(Oc4ccnc5[nH]ccc45)c3)cc2C(F)(F)F)CC1", "Potency": "inconclusive: 28.2 µM [rising, single point]"}, {"smiles": "NC(=O)c1ccccc1Nc1ccnc(Nc2cccc(O)c2)n1", "Potency": "inconclusive: 3.55 µM [cytotoxic, partial curve, poor fit]"}, {"smiles": "O=C(Nc1nc2cc(C(F)(F)F)cc(NC3CC3)n2n1)c1cccnc1", "Potency": "active: 10 µM"}, {"smiles": "CC(C)(O)C1CC(=O)C2(C)C(CCC3(C)C(c4ccoc4)OC(=O)C4OC432)C12CCC(=O)OC2", "note": "(stereo not given)", "Potency": "inconclusive: 7.08 µM [rising, partial curve, poor fit]"}, {"smiles": "CC(=O)OC[C@H]1O[C@@H](n2ncc(=O)[nH]c2=O)[C@H](OC(C)=O)[C@@H]1OC(C)=O", "activity change, negative = cytotoxicity": "inactive: -7.87%"}, {"smiles": "C#CCN(Cc1cc2c(=O)[nH]c(C)nc2cc1Br)c1ccc(C(=O)NCc2cccnc2)cc1", "Potency": "inconclusive: 0.447 µM"}, {"smiles": "COc1ccc2nc(-c3cc(OC)c(OC)c(OC)c3)cc(C(=O)NCC(=O)Nc3ccc(C(C)=O)cc3)c2c1", "Potency": "inconclusive: 31.6 µM [cytotoxic, single point]"}]}]}
